The values below come from article PMC4336329 (PLoS ONE, 2015).

Hit rate of the full screen: of about 310,000 compounds, about 14,000 (4.5%) showed an effect of 50% or more. The effect is printed as a negative number. Some of the results follow.
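Note: peak tail current of the secondary pulse compared with the same well before compound.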

Sequence of human ether-à-go-go-related gene (hERG) potassium channel (Q12809 whole entry, looked up): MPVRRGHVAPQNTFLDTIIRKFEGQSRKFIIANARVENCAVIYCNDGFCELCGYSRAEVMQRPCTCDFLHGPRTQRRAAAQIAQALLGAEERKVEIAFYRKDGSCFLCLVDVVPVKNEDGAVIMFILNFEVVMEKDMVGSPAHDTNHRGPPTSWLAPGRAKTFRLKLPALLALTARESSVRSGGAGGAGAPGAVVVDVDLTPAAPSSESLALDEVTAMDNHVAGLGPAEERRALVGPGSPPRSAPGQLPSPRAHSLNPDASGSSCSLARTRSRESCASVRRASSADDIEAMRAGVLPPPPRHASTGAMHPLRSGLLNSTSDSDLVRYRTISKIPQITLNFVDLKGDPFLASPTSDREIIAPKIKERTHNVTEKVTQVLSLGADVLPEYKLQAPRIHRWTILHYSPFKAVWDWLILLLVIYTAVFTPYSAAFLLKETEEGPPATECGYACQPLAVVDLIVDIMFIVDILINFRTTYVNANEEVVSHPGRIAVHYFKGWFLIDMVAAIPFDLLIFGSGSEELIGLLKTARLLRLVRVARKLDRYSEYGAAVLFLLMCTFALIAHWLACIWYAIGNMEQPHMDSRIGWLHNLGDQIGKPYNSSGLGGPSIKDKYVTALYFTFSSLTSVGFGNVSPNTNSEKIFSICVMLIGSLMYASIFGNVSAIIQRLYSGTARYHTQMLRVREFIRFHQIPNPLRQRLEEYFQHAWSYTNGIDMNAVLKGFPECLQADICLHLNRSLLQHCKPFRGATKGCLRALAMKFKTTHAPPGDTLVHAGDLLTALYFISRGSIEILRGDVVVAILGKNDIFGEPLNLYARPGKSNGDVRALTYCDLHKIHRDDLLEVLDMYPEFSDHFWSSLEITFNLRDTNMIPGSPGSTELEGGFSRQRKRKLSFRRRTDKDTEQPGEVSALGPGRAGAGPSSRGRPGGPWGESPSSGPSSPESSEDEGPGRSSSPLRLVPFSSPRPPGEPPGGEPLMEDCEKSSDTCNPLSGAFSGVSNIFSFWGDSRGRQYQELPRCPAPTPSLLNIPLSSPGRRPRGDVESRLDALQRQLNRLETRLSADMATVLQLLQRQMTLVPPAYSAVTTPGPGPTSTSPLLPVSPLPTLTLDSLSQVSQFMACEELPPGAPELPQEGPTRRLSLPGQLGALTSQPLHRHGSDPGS

This experiment concerns the target human ether-à-go-go-related gene (hERG) potassium channel (human, UniProt Q12809). Put plainly: primary screen, population patch clamp on CHO cells stably expressing hERG.
Regarding `Cc1ccc(-c2nn(-c3ccccc3)cc2/C=C(\C#N)c2cccc(C#N)c2)o1`, the “hERG current change (%, negative = inhibition) at 10uM” value was 7.07%.

Take `CCC(=O)Nc1nnc(S(=O)(=O)N(C)c2cc(C)cc(C)c2)s1`: the “hERG current change (%, negative = inhibition) at 10uM” value stood at 13.3%. As for `CCNC(=O)C(Sc1ccccc1)c1ccccc1` (centres unmarked), the “hERG current change (%, negative = inhibition) at 10uM” value was 7.43%.

For the compound `COc1ccc(-n2nc(C(=O)NCC(=O)NCC3CCCO3)c3ccccc3c2=O)c(OC)c1` (centres unmarked), the “hERG current change (%, negative = inhibition) at 10uM” value is -9.52%.

`Cc1cc(C)cc(N(C(=O)c2csnn2)C(C(=O)NC(C)(C)C)c2ccccn2)c1` (centres unmarked): the “hERG current change (%, negative = inhibition) at 10uM” value was found to be 14.4%.

In the case of `Cc1ccc(N(CC(=O)Nc2ccccc2-c2ccccc2)S(=O)(=O)c2ccccc2)c(C)c1`, the “hERG current change (%, negative = inhibition) at 10uM” value was -5.82%. In the case of `Cc1cccc(NS(=O)(=O)c2ccc3[nH]c(=O)[nH]c3c2)c1C` it was 13.7%. On to `COCCCn1c(=O)c2ccccc2n(CC(=O)NC2CCCC2)c1=O`, for which the “hERG current change (%, negative = inhibition) at 10uM” value is listed as 21.2%. In the case of `NS(=O)(=O)c1ccc(Nc2nc(-c3ccc(F)cc3)cs2)cc1` it was 13.4%; in that of `CC(=O)Nc1ccc(Nc2cc(C)nc3ccccc23)cc1`, -7.21%. `Cn1c(=O)c2cn(-c3cccc4ccccc34)cc2n(C)c1=O`: the “hERG current change (%, negative = inhibition) at 10uM” value is recorded as 6.99%. In the case of `COc1ccc(C(=O)Nc2nnc(-c3ccccc3)s2)cc1` it was 11.7%. `NC(=O)C1CCN(C(=S)c2cccs2)CC1`: the “hERG current change (%, negative = inhibition) at 10uM” value came out at 6.97%. With `O=C(O)C1C2C=CC(C2)C1C(=O)N1CCN(CCO)CC1` (centres unmarked), the “hERG current change (%, negative = inhibition) at 10uM” value was found to be 9.13%.

`CCN1CCN(C(=S)c2ccc(Cl)cc2)CC1`: the “hERG current change (%, negative = inhibition) at 10uM” value is given as -16.4%. In the case of `COc1ccccc1C(=O)NCC(=O)Nc1cccnc1` it was 20.5%; in that of `c1cncc(-c2nnc(-c3ccco3)o2)c1`, 1.52%; in that of `Cc1ccc2cc(CCNC(=O)C(C)(C)C)c(=O)[nH]c2c1`, 7.16%. Under `COc1cccc(OC)c1C(=O)Nc1ccc(S(=O)(=O)Nc2ncccn2)cc1` stands 8.01%; under `O=[N+]([O-])c1cccc(CSc2ncnc3ccccc23)c1`, 10.9%; under `CCOC(=O)C1CCN(C(=O)C(CCSC)NC(=O)COc2ccccc2)CC1` (centres unmarked), -37.3%. In the case of `Cc1cc(Cl)c(O)c(-n2nc3ccccc3n2)c1` it was -10.6%.

Turning to `Cc1ccc(Cn2nnc3c(=O)n(CC(=O)c4ccccc4)cnc32)cc1`, the “hERG current change (%, negative = inhibition) at 10uM” value is recorded as -0.591%. Regarding `Cc1ccc(CNC(=O)c2cc(-c3cc(C)cc(C)c3O)n[nH]2)cc1`, the “hERG current change (%, negative = inhibition) at 10uM” value turned out to be 16.3%. Under `O=C(NC1CCOc2ccccc21)c1ccc(Cl)nc1` (centres unmarked) stands 11.2%; under `COc1ccc(C(=O)Nc2cccc(NC(=O)c3ccc(OC)c(OC)c3)n2)cc1OC`, 1.59%.
